# Reference: paper PMC7819943, “Rice protein-binding microarrays: a tool to detect cis-acting elements near promoter regions in rice”
# Some of the results follow.
# Molecular target: T1, OsWOX13 (Oryza sativa, UniProt Q5QMM3 1-267)
# T1 sequence: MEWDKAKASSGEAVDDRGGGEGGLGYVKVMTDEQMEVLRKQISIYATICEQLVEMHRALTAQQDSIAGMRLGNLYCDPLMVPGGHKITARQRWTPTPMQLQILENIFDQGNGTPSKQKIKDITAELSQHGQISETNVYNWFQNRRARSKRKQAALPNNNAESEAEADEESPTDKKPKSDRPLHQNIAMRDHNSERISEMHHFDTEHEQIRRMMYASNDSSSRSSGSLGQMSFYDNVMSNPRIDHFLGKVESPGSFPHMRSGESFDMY
# Test: protein-binding microarray (RPBM); PBS, 2% BSA, 51.3 ng/ul salmon testes DNA, 50 uM zinc acetate, 200 nM TF, 25 C, 1 h; high values mean tight binding
# Settings: protein: recombinant; tags: N-terminal polyhistidine and DsRed monomer fusion (pET32a); label: CyDye5-dUTP incorporated in the synthesized complementary strand; 3' TTTTT single-stranded linker to array surface; dsDNA, one strand shown
# In short: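 Transcription factors were each fused at the N-terminus to a polyhistidine tag plus DsRed and expressed in E. coli BL21-CodonPlus before Ni–NTA purification. Binding to a double-stranded custom Agilent array was carried out with 200 nM protein at 25 °C for 1 h in PBS, 2% BSA, salmon testes DNA and 50 µM zinc acetate. The binding signal is per-feature fluorescence intensity, in arbitrary units, on an Axon 4000B scanner.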
row,Sequence,binding signal
1,TTTCTCTAATTTATTTGCACCACGTAGCGACTTAGGATAGCGGAGTCACCTAGTGCAG,7300 fluorescence intensity (a.u.)
2,TGGCAAATTAGTAGCTTGGTGGAAATTGCCCGAGTTGAGTCGGAGTCACCTAGTGCAG,6110 fluorescence intensity (a.u.)
3,GTCCATTCACCACAAATTTAACACCGTTACCATTAGTTAACGGAGTCACCTAGTGCAG,5050 fluorescence intensity (a.u.)
4,TATATATATATATATATATATATATATATAACTACAATAGCGGAGTCACCTAGTGCAG,28800 fluorescence intensity (a.u.)
5,ACATAAATTGAGAATCAATATGCAATACTAAAGGTTCAAGCGGAGTCACCTAGTGCAG,18100 fluorescence intensity (a.u.)
6,CCGAGGAAACAATTATTGGTGACGTAGCTAAATCTTAGGTCGGAGTCACCTAGTGCAG,3460 fluorescence intensity (a.u.)
7,GGAAAGTGATTATATTTCATCAATAGATATCCCCTCGTTTCGGAGTCACCTAGTGCAG,18200 fluorescence intensity (a.u.)
8,ATTCACAAATTACTTTCCGTTTACAAATATACTGTTTTGCCGGAGTCACCTAGTGCAG,5750 fluorescence intensity (a.u.)
9,AGCTGATTTGCTTGAACATGAAGAGCTGAACAAAGACAGCCGGAGTCACCTAGTGCAG,26200 fluorescence intensity (a.u.)
10,GTGTTGCCTGATTGAGACTGTCCCTCAAGCAATAGAAATCCGGAGTCACCTAGTGCAG,12200 fluorescence intensity (a.u.)
11,TAAATTTTAAATTTAAAATAATTAGCACTTAATTAATCATCGGAGTCACCTAGTGCAG,37300 fluorescence intensity (a.u.)
12,GAAAATAATTAAATTTAAAATTGAGTTTTAAATTTTAATCCGGAGTCACCTAGTGCAG,22400 fluorescence intensity (a.u.)
13,AATTAATTATAGTATTGTTTAGTTTATTGTGTTTTGTGTTCGGAGTCACCTAGTGCAG,22100 fluorescence intensity (a.u.)
14,AAGATTTTAGTTCAAATTATAATATGTGAGCGAGCCTGCTCGGAGTCACCTAGTGCAG,3710 fluorescence intensity (a.u.)
15,AGATAATACTTAATCATGTACTAATAAGTTACTTTGTTATCGGAGTCACCTAGTGCAG,3500 fluorescence intensity (a.u.)
16,AAAGTGATTGATACGATGTAGAAGCATAGCAATAGCTGTCCGGAGTCACCTAGTGCAG,48300 fluorescence intensity (a.u.)
17,ATAAATAAATACTCTAATTGCAAGCAACCAACGTCCCAACCGGAGTCACCTAGTGCAG,5780 fluorescence intensity (a.u.)
18,TTTCAAATCAAATCCAATCCTCCTCCTCCAGATCTCTCCACGGAGTCACCTAGTGCAG,3410 fluorescence intensity (a.u.)
19,TTTGATGATATCCTAATTTACAGCAAGACATTGGAGGAACCGGAGTCACCTAGTGCAG,28100 fluorescence intensity (a.u.)
20,ATCGATTTGGTGAGATTAATTGGGTTTCTAATGGTGGGGTCGGAGTCACCTAGTGCAG,13300 fluorescence intensity (a.u.)
21,AGTAATTTAAACACGAAAACATTTCTTATTGACAAGAATACGGAGTCACCTAGTGCAG,4230 fluorescence intensity (a.u.)
22,TTATTTAATTTAGAAAATTGGAGTTACCAGTTGTTCAGTTCGGAGTCACCTAGTGCAG,19500 fluorescence intensity (a.u.)
23,TCTTTCTAAAATTTAAAATTTATCCTGAAAGACTTATCACCGGAGTCACCTAGTGCAG,3150 fluorescence intensity (a.u.)
24,ATATAAATAAATACAATTATAATAATAATCAAAATGGTCACGGAGTCACCTAGTGCAG,5150 fluorescence intensity (a.u.)
25,TTCGAACGGCGATTGTAATTGGTAGGGCCTATTCAGAATCCGGAGTCACCTAGTGCAG,4280 fluorescence intensity (a.u.)
26,GTACTATGTACTACGTATCAATCAATTAGTTAGGTGTTTGCGGAGTCACCTAGTGCAG,13500 fluorescence intensity (a.u.)
27,ATAACAGTAACGATCTTCAATTATCTCTCCATGAACATAACGGAGTCACCTAGTGCAG,3300 fluorescence intensity (a.u.)

row,Sequence,binding signal
1,GTCTAATTGCTCTATGATTTAACAATGTAGTGCTACAGTACGGAGTCACCTAGTGCAG,52000 fluorescence intensity (a.u.)
2,AGGATCGTCCATTAAGAGTTGTCAATTATTATTACAGTTACGGAGTCACCTAGTGCAG,4620 fluorescence intensity (a.u.)
3,TATGATTACTATTTTCATTGTTGTTAGATAATAAAACATGCGGAGTCACCTAGTGCAG,27600 fluorescence intensity (a.u.)
4,GCATTTTAAATTGCAACGATTGCTCAGATTGGGAACTCCGCGGAGTCACCTAGTGCAG,8600 fluorescence intensity (a.u.)
5,ATAATAAACTGAGAGGAGGATAGTAATATGTACTTAGTAACGGAGTCACCTAGTGCAG,4400 fluorescence intensity (a.u.)
6,TAAAACATAACATAATTGTTTCAACTCATATACTACACATCGGAGTCACCTAGTGCAG,14300 fluorescence intensity (a.u.)
7,TATGTTTGAGATCGACGGTTAATTGAAACAAGTCGTTGCGCGGAGTCACCTAGTGCAG,4050 fluorescence intensity (a.u.)
8,TGTCCTGTTAACTGACTTCAAGTTGGAGATTTCACCAACCCGGAGTCACCTAGTGCAG,3720 fluorescence intensity (a.u.)
9,TAATTATTTGAATTAGTGATTTTGTACCAAATGATCGAACCGGAGTCACCTAGTGCAG,3660 fluorescence intensity (a.u.)
10,GTTTGATTGATTGATTTCGTGTACCATGCGGACTTCAGATCGGAGTCACCTAGTGCAG,65100 fluorescence intensity (a.u.)
11,TTCATTAATACATAATTAACTGAGTATTAATTAAAGTAATCGGAGTCACCTAGTGCAG,26700 fluorescence intensity (a.u.)
12,CTTCTAATTAGTGTCCAAACATTTGATATGACAAAGACTACGGAGTCACCTAGTGCAG,24900 fluorescence intensity (a.u.)
13,GATCTCCAGGTGAATAAATGATTGCTTTCTTTAGCAACCACGGAGTCACCTAGTGCAG,4150 fluorescence intensity (a.u.)
14,ACCTTTAAAAGATTGGATTGGTATATTTTAACATTGATTACGGAGTCACCTAGTGCAG,11200 fluorescence intensity (a.u.)
15,GATAAATTTGATGTTGGAAACTCGGAGTATTTATGGTGGACGGAGTCACCTAGTGCAG,16700 fluorescence intensity (a.u.)
16,TAAAATTACGATAATTTAATCTCTTGCTGTTTTCAGAAGCCGGAGTCACCTAGTGCAG,28100 fluorescence intensity (a.u.)
17,TCAAAATAGACTTATTCAATATTAGGCCTCTACACGATGGCGGAGTCACCTAGTGCAG,4380 fluorescence intensity (a.u.)
18,TGGAATGATGGATAAAGTCCAAGTTTGACCTGAGTCAAAGCGGAGTCACCTAGTGCAG,6270 fluorescence intensity (a.u.)
19,GTTAATTAAGCTCTGATAATTCTAACACTAGTGACAAATTCGGAGTCACCTAGTGCAG,21600 fluorescence intensity (a.u.)
20,CGAAACTGATATGGTGTACGCTGTCACCGAATACTATCTCCGGAGTCACCTAGTGCAG,4220 fluorescence intensity (a.u.)
21,ATTTAATGAATTATATGTGGAGTATGTGTAAAGTTTGACCCGGAGTCACCTAGTGCAG,8610 fluorescence intensity (a.u.)
22,TGTTTATGCTTACTAATTACCACAAGTAACATTAAGTCAACGGAGTCACCTAGTGCAG,4750 fluorescence intensity (a.u.)
23,GAAAATTGGAGAAATTGTAACCGTACCACTCCATCACATTCGGAGTCACCTAGTGCAG,32500 fluorescence intensity (a.u.)
24,AGGACTACTATAATTGCAACTGAAATAAAACCTTGGCTTGCGGAGTCACCTAGTGCAG,5450 fluorescence intensity (a.u.)
25,TATGTTAGCTTCCCAATCAATTCCATGGAAATATATCATCCGGAGTCACCTAGTGCAG,6500 fluorescence intensity (a.u.)
26,TGTGATTATGTTTGTTACTTCACGCAATGAGCCGTCTAGCCGGAGTCACCTAGTGCAG,22000 fluorescence intensity (a.u.)
27,GTAAATAATTTTAAAGTTATTGATTGGTAAAATTCTAATTCGGAGTCACCTAGTGCAG,26900 fluorescence intensity (a.u.)
